{
  "source": "the supplement of paper PMC8728848",
  "binders": {"B1": {"name": "PX9961H-bth-557-24-557 (Bacteroides thetaiotaomicron) (protein)", "chain": "EETRTEVEKKNYMNNAEEAKDVLLGVYRTNTLDAMYGYYLSILFNLGTDISQVEGSGNENFRIIPTNSFPTTQSEVQQTWAALYTGIYRANDFLERISNKIGSYTTTDKKLATLYIAEARALRGMFYFELVRRFGNVVLMTSTQMSNQNPATYVQSAPEKVYEYIEDDLLYACDILPYATDDQYRESNDYRFSKGAALGLLTKVYATWAGYPVKDESKWEAAAKTARILVESGKHGLLKDYEQLWKNTCNGTWDPTESLIEISFYSPTVSGNSDPVGRIGKWNGVKTTAIAGVRGSCAANVKVVHTFVLDWREDVSDIRRDLSIANYQYTDTKKSLWVAGASDTDESAAEKDADPTKAQKNKQNYTPAKWDIQKYVTTNSFINNDKSNVNWYFLRYADVLLLYAEALNEWKHGPDAEAYNAINAVRRRGYGNPSNTSACDLPQGLDETSFREAVRKERSYELSFEGHRRQDLIRWGIYYKTVQATAKELGYWWEGTGSPNYSVATYTEEGKHELFPIPQRDMDLCIQFNQNPKW"}},
  "assay_in_all_cases": "glycan array binding signal (z-score within array); higher = stronger binding",
  "settings_in_all_cases": "glycan notation: IUPAC condensed, linker removed",
  "key": {"Gal(b1-2)Gal": {"target": "Gal(b1-2)Gal", "how_it_was_run": "(§1)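 Arrays were curated from the Consortium for Functional Glycomics database, 3228 in total, and kept only where the protein sequence was available. Binding is expressed as a within-array Z-score. This score was averaged across arrays of the same protein sequence at different concentrations or buffers and across linkers, and negative values can be read as non-binding.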"}, "Gal(b1-3)Gal": {"target": "Gal(b1-3)Gal", "how_it_was_run": "as §1"}, "Gal(b1-3)Gal(b1-4)GlcNAc": {"target": "Gal(b1-3)Gal(b1-4)GlcNAc", "how_it_was_run": "as §1"}, "Gal(b1-3)GalNAc": {"target": "Gal(b1-3)GalNAc", "how_it_was_run": "as §1"}, "[1]": {"target": "Gal(b1-3)GalNAc(a1-3)[Fuc(a1-2)]Gal(b1-4)Glc", "how_it_was_run": "as §1"}, "[2]": {"target": "Gal(b1-3)GalNAc(a1-3)[Fuc(a1-2)]Gal(b1-4)GlcNAc", "how_it_was_run": "as §1"}, "Gal(b1-3)GalNAc(b1-3)Gal": {"target": "Gal(b1-3)GalNAc(b1-3)Gal", "how_it_was_run": "as §1"}, "[3]": {"target": "Gal(b1-3)GalNAc(b1-3)Gal(a1-4)Gal(b1-4)Glc", "how_it_was_run": "as §1"}, "[4]": {"target": "Gal(b1-3)GalNAc(b1-4)Gal(b1-4)Glc", "how_it_was_run": "as §1"}, "[5]": {"target": "Gal(b1-3)GalNAc(b1-4)[Neu5Ac(a2-3)]Gal(b1-4)Glc", "how_it_was_run": "as §1"}, "Gal(b1-3)GlcNAc": {"target": "Gal(b1-3)GlcNAc", "how_it_was_run": "as §1"}, "[6]": {"target": "Gal(b1-3)GlcNAc(a1-3)Gal(b1-4)GlcNAc", "how_it_was_run": "as §1"}, "[7]": {"target": "Gal(b1-3)GlcNAc(a1-6)Gal(b1-4)GlcNAc", "how_it_was_run": "as §1"}, "Gal(b1-3)GlcNAc(b1-2)Man": {"target": "Gal(b1-3)GlcNAc(b1-2)Man", "how_it_was_run": "as §1"}, "[8]": {"target": "Gal(b1-3)GlcNAc(b1-2)Man(a1-3)[Gal(b1-3)GlcNAc(b1-2)Man(a1-6)]Man(b1-4)GlcNAc(b1-4)GlcNAc", "how_it_was_run": "as §1"}, "[9]": {"target": "Gal(b1-3)GlcNAc(b1-2)Man(a1-3)[Gal(b1-3)GlcNAc(b1-2)Man(a1-6)]Man(b1-4)GlcNAc(b1-4)[Fuc(a1-6)]GlcNAc", "how_it_was_run": "as §1"}, "[10]": {"target": "Gal(b1-3)GlcNAc(b1-2)Man(a1-3)[GlcNAc(b1-4)][Gal(b1-3)GlcNAc(b1-2)Man(a1-6)]Man(b1-4)GlcNAc(b1-4)GlcNAc", "how_it_was_run": "as §1"}, "[11]": {"target": "Gal(b1-3)GlcNAc(b1-2)[Gal(b1-3)GlcNAc(b1-6)]Man(a1-6)[Gal(b1-3)GlcNAc(b1-2)Man(a1-3)]Man(b1-4)GlcNAc(b1-4)GlcNAc", "how_it_was_run": "as §1"}, "[12]": {"target": "Gal(b1-3)GlcNAc(b1-3)Gal(b1-3)GlcNAc", "how_it_was_run": "as §1"}, "[13]": {"target": "Gal(b1-3)GlcNAc(b1-3)Gal(b1-4)Glc", "how_it_was_run": "as §1"}, "[14]": {"target": "Gal(b1-3)GlcNAc(b1-3)Gal(b1-4)GlcNAc", "how_it_was_run": "as §1"}, "[15]": {"target": "Gal(b1-3)GlcNAc(b1-3)Gal(b1-4)GlcNAc(b1-2)Man(a1-3)[Gal(b1-3)GlcNAc(b1-3)Gal(b1-4)GlcNAc(b1-2)Man(a1-6)]Man(b1-4)GlcNAc(b1-4)GlcNAc", "how_it_was_run": "as §1"}, "[16]": {"target": "Gal(b1-3)GlcNAc(b1-3)Gal(b1-4)GlcNAc(b1-2)[Gal(b1-3)GlcNAc(b1-3)Gal(b1-4)GlcNAc(b1-6)]Man(a1-6)[Gal(b1-3)GlcNAc(b1-3)Gal(b1-4)GlcNAc(b1-2)Man(a1-3)]Man(b1-4)GlcNAc(b1-4)[Fuc(a1-6)]GlcNAc", "how_it_was_run": "as §1"}, "[17]": {"target": "Gal(b1-3)GlcNAc(b1-3)Gal(b1-4)GlcNAc(b1-3)Gal(b1-4)GlcNAc(b1-2)[Gal(b1-3)GlcNAc(b1-3)Gal(b1-4)GlcNAc(b1-3)Gal(b1-4)GlcNAc(b1-6)]Man(a1-6)[Gal(b1-3)GlcNAc(b1-3)Gal(b1-4)GlcNAc(b1-3)Gal(b1-4)GlcNAc(b1-2)Man(a1-3)]Man(b1-4)GlcNAc(b1-4)[Fuc(a1-6)]GlcNAc", "how_it_was_run": "as §1"}, "[18]": {"target": "Gal(b1-3)GlcNAc(b1-3)Gal(b1-4)GlcNAc(b1-6)[Gal(b1-3)GlcNAc(b1-3)]Gal(b1-4)Glc", "how_it_was_run": "as §1"}, "[19]": {"target": "Gal(b1-3)GlcNAc(b1-3)Gal(b1-4)[Fuc(a1-3)]GlcNAc", "how_it_was_run": "as §1"}, "[20]": {"target": "Gal(b1-3)GlcNAc(b1-3)Gal(b1-4)[Fuc(a1-3)]GlcNAc(b1-6)[Gal(b1-3)GlcNAc(b1-3)]Gal(b1-4)Glc", "how_it_was_run": "as §1"}, "[21]": {"target": "Gal(b1-3)GlcNAc(b1-3)GalNAc", "how_it_was_run": "as §1"}, "[22]": {"target": "Gal(b1-3)GlcNAc(b1-6)Gal(b1-4)GlcNAc", "how_it_was_run": "as §1"}, "[23]": {"target": "Gal(b1-3)GlcNAc(b1-6)GalNAc", "how_it_was_run": "as §1"}, "[24]": {"target": "Gal(b1-3)GlcNAc(b1-6)[Gal(b1-3)]GalNAc", "how_it_was_run": "as §1"}, "Gal(b1-3)GlcNAc6S": {"target": "Gal(b1-3)GlcNAc6S", "how_it_was_run": "as §1"}, "[25]": {"target": "Gal(b1-3)[Fuc(a1-4)]GlcNAc", "how_it_was_run": "as §1"}, "[26]": {"target": "Gal(b1-3)[Fuc(a1-4)]GlcNAc(b1-2)Man", "how_it_was_run": "as §1"}, "[27]": {"target": "Gal(b1-3)[Fuc(a1-4)]GlcNAc(b1-2)Man(a1-3)[Gal(b1-3)[Fuc(a1-4)]GlcNAc(b1-2)Man(a1-6)]Man(b1-4)GlcNAc(b1-4)[Fuc(a1-6)]GlcNAc", "how_it_was_run": "as §1"}, "[28]": {"target": "Gal(b1-3)[Fuc(a1-4)]GlcNAc(b1-3)Gal(b1-3)[Fuc(a1-4)]GlcNAc", "how_it_was_run": "as §1"}, "[29]": {"target": "Gal(b1-3)[Fuc(a1-4)]GlcNAc(b1-3)Gal(b1-4)[Fuc(a1-3)]GlcNAc", "how_it_was_run": "as §1"}},
  "note": "The other results are listed elsewhere or left out.",
  "data": [
    {"binder": "B1", "values": [
      {"measurement": "glycan array binding signal (z-score)", "setting": "Gal(b1-2)Gal", "value": -0.499},
      {"measurement": "glycan array binding signal (z-score)", "setting": "Gal(b1-3)Gal", "value": -0.55},
      {"measurement": "glycan array binding signal (z-score)", "setting": "Gal(b1-3)Gal(b1-4)GlcNAc", "value": -0.213},
      {"measurement": "glycan array binding signal (z-score)", "setting": "Gal(b1-3)GalNAc", "value": -0.451},
      {"measurement": "glycan array binding signal (z-score)", "setting": "[1]", "value": -0.246},
      {"measurement": "glycan array binding signal (z-score)", "setting": "[2]", "value": -0.422},
      {"measurement": "glycan array binding signal (z-score)", "setting": "Gal(b1-3)GalNAc(b1-3)Gal", "value": -0.483},
      {"measurement": "glycan array binding signal (z-score)", "setting": "[3]", "value": -0.351},
      {"measurement": "glycan array binding signal (z-score)", "setting": "[4]", "value": -0.315},
      {"measurement": "glycan array binding signal (z-score)", "setting": "[5]", "value": -0.535},
      {"measurement": "glycan array binding signal (z-score)", "setting": "Gal(b1-3)GlcNAc", "value": -0.537},
      {"measurement": "glycan array binding signal (z-score)", "setting": "[6]", "value": -0.348},
      {"measurement": "glycan array binding signal (z-score)", "setting": "[7]", "value": -0.025},
      {"measurement": "glycan array binding signal (z-score)", "setting": "Gal(b1-3)GlcNAc(b1-2)Man", "value": -0.341},
      {"measurement": "glycan array binding signal (z-score)", "setting": "[8]", "value": 5.54},
      {"measurement": "glycan array binding signal (z-score)", "setting": "[9]", "value": -0.334},
      {"measurement": "glycan array binding signal (z-score)", "setting": "[10]", "value": 1.22},
      {"measurement": "glycan array binding signal (z-score)", "setting": "[11]", "value": 0.922},
      {"measurement": "glycan array binding signal (z-score)", "setting": "[12]", "value": -0.383},
      {"measurement": "glycan array binding signal (z-score)", "setting": "[13]", "value": -0.147},
      {"measurement": "glycan array binding signal (z-score)", "setting": "[14]", "value": -0.35},
      {"measurement": "glycan array binding signal (z-score)", "setting": "[15]", "value": 2.88},
      {"measurement": "glycan array binding signal (z-score)", "setting": "[16]", "value": 1.55},
      {"measurement": "glycan array binding signal (z-score)", "setting": "[17]", "value": 0.301},
      {"measurement": "glycan array binding signal (z-score)", "setting": "[18]", "value": -0.43},
      {"measurement": "glycan array binding signal (z-score)", "setting": "[19]", "value": -0.22},
      {"measurement": "glycan array binding signal (z-score)", "setting": "[20]", "value": -0.37},
      {"measurement": "glycan array binding signal (z-score)", "setting": "[21]", "value": -0.426},
      {"measurement": "glycan array binding signal (z-score)", "setting": "[22]", "value": -0.37},
      {"measurement": "glycan array binding signal (z-score)", "setting": "[23]", "value": 0.811},
      {"measurement": "glycan array binding signal (z-score)", "setting": "[24]", "value": 0.09},
      {"measurement": "glycan array binding signal (z-score)", "setting": "Gal(b1-3)GlcNAc6S", "value": 0.103},
      {"measurement": "glycan array binding signal (z-score)", "setting": "[25]", "value": -0.121},
      {"measurement": "glycan array binding signal (z-score)", "setting": "[26]", "value": 1.56},
      {"measurement": "glycan array binding signal (z-score)", "setting": "[27]", "value": -0.205},
      {"measurement": "glycan array binding signal (z-score)", "setting": "[28]", "value": -0.279},
      {"measurement": "glycan array binding signal (z-score)", "setting": "[29]", "value": -0.413}
    ]}
  ]
}
